Measured values published in US20220177596A1 (Bristol-Myers Squibb, published 2022).

B1: Y1238-hz1-P238K (antibody, human IgG1, kappa)
heavy: QVQLVQSGAEVKKPGASVKVSCKASGYAFTNYLIEWVRQAPGQGLEWMGVINPGSGGTNYNEKFKGRVTMTRDTSISTAYMELSRLRSDDTAVYYCARSQLGRRFDYWGQGTLVTVSS[omitted - human IgG1 constant region with P238K (EU numbers)]
light: DIQMTQSPSSLSASVGDRVTITCKASQDVRTGVAWYQQKPGKAPKLLIYSASYRNTGVPSRFSGSGSGTDFTFTISSLQPEDIATYYCQQHYSPPYTFGGGTKVEIKRTVAAPSVFIFPPSDEQLKSGTASVVCLLNNFYPREAKVQWKVDNALQSGNSQESVTEQDSKDSTYSLSSTLTLSKADYEKHKVYACEVTHQGLSSPVTKSFNRGEC
notes: Humanized Y1238
B2: Y1238-hz1-N297A (antibody, human IgG1, kappa)
heavy: QVQLVQSGAEVKKPGASVKVSCKASGYAFTNYLIEWVRQAPGQGLEWMGVINPGSGGTNYNEKFKGRVTMTRDTSISTAYMELSRLRSDDTAVYYCARSQLGRRFDYWGQGTLVTVSSASTKGPSVFPLAPSSKSTSGGTAALGCLVKDYFPEPVTVSWNSGALTSGVHTFPAVLQSSGLYSLSSVVTVPSSSLGTQTYICNVNHKPSNTKVDKRV[omitted - human IgG1 Fc with changes]
light: B1 light
notes: Humanized Y1238

Experiments:
[1] = target: human CD40 on primary human cells (tonsillar B cells, immature dendritic cells) (human, UniProt P25942 21-277); assay: cell-based or functional assay
[2] = target: T1, human-CD40 monomer (human, UniProt P25942 part only, limits assumed); assay: SPR, Ab captured on protein A, CD40 monomer analyte
T1 construct: also called hCD40-monomer; human-CD40-monomer protein
Excerpt: Based on the supernatant screening SPR data and bias towards constructs with fewer framework back-mutations, a subset of humanized Y1238 antibodies were selected for expression, purification, and further characterization. Two of these antibodies (i.e., Y1238-hz1 and Y1238-hz2) were formatted with P238K and N297A isotypes (i.e., SEQ ID NOS: 39, 40, 42, and 43 for heavy chains; see TABLE 15 for light chains) and tested for CD40 and FcgR binding by SPR. […] The Fc domain is underlined.

Binder	IC50 for inhibition of proliferation of B cells, CD40L Trimer [1] [µg/mL]	IC50 for inhibition of proliferation of B cells, CHO CD40L [1] [µg/mL]	Kd [2] [nM]	koff [2] [s⁻¹]	kon [2] [M⁻¹ s⁻¹]
B1	0.0031	0.032	5	0.00039	78000
B2	0.0031	0.035	5	0.00039	80000
